# Source: PubChem BioAssay AID361 (National Center for Advancing Translational Sciences (NCATS), 2006)
# Screen size: about 51,000 compounds; about 600 (1.2%) were called active. The inconclusive results got no clear call from the source; some entries with a clear call stand among them for comparison. Rule as the data show it: active = potency below about 11 µM; inconclusive = mostly about 12 µM to 25 µM; inactive = weaker than that;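 the screen sought inhibitors and activators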. Potencies of inconclusive entries are left out as doubtful fits.
# Tested on: pyruvate kinase (Bacillus stearothermophilus)
# Experiment: Pyruvate Kinase
# Settings: purified pyruvate kinase, luminescence ATP production; ribose 5-phosphate activator present at AC10
# Description: Pyruvate kinase (partially purified from Bacillus stearothermophilus) was assayed for its ability to generate ATP from ADP using phosphoenolpyruvate (PEP) as a substrate. ATP generation was detected in a coupled reaction by luciferase-mediated luminescence, an ATP-dependent process. Pyruvate kinase substrates, PEP and ADP, were present in the assay at Km and […]-fold below Km respectively. The enzyme was assayed at an intermediate level of activity to screen for inhibitors and activators. In addition, ribose 5 phosphate, a positive modulator of pyruvate kinase, was included in the assay at AC10 in order to identify possible potentiators.
# NCGC Assay Protocol Summary:
# Three uL of substrate mix (final concentration, 50 mM imidazole pH 7.2, 50 mM KCl, 7 mM MgCl2, 2 mM PEP, 0.1 mM ADP, 0.7 nM ribose 5 phosphate, 0.01% Tween 20, 0.05% BSA) was dispensed into 1536 well plates. 23 nL of compound were delivered by a pin tool and 1 uL of enzyme mix (final concentration, 10 nM pyruvate kinase, 50 mM imidazole pH 7.2, 0.05% BSA) was added. After centrifugation at 1000 rpm for less than a minute, plates were incubated at room temperature for 2 hours. Three uL of detection and kinase stop mix (PKLight, Cambrex) was added, the plates centrifuged, and luminescence read by a ViewLux (Perkin Elmer) at 5 second exposure/plate. Data were normalized to the controls for AC100 stimulation (5 uM ribose 5 phosphate) and to AC100 inhibition (110 uM luteolin).
# Potency is read from the fitted curve at half-maximal effect.
row,Structure (SMILES),Potency
1,O=C(c1ccc(NS(=O)(=O)c2cccc3cccnc23)cc1)N1CCOCC1,inconclusive [increasing]
2,COc1ccccc1OCC(=O)Nc1ccccn1,inconclusive [decreasing]
3,Cc1ccc(C(=O)NCc2nnc(SCC(=O)Nc3sc4c(c3C#N)CCCC4)n2C)cc1,inactive: > 57 µM
4,CC(=O)N[C@H]1C[C@@H]1c1ccccc1,inactive: > 25.6 µM
5,COc1ccc(OC)c2[nH]c(=O)c(CCNS(=O)(=O)c3ccccc3)cc12,inconclusive [decreasing]
6,CN1CCN(C(=O)c2ccccc2-c2nc(-c3ccc(Cl)cc3)no2)CC1,inconclusive [decreasing]
7,CCOC(=O)c1c(C)c(C(=O)Nc2ccc3c(c2)OCCO3)c(C)n1CC,inactive: > 57 µM
8,Cc1ccccc1Cn1ccc(NC(=O)c2cnn3cccnc23)n1,inconclusive [increasing]
9,Cc1cc(C)n2nc(NCc3cccc(Br)c3)nc2n1,inconclusive [increasing]
10,Cc1cccc(N(C)C(=O)c2cc3cc4ccc(C)cc4nc3o2)c1,inconclusive [increasing]
11,Cc1ccc(CNC(=O)c2cn(C3CCCC3)c(=O)c3c2c2ccccc2n3C)o1,inconclusive [decreasing]
12,CCN(CC)c1ccc(-c2nn3c(-c4cccnc4)nnc3s2)cc1,active: 5.23 µM
13,Clc1ccc(-c2ccc(-c3nn4c(-c5ccco5)nnc4s3)o2)cc1,inconclusive [decreasing]
14,Cc1nc2ccccc2c2nc(NC(=O)Cc3ccccc3)nn12,inconclusive [decreasing]
15,O=C(OCn1nnc2ccccc2c1=O)C1CCCCC1,inactive: > 57 µM
16,O=C(NCc1cccs1)Nc1cccs1,inactive: > 57 µM
17,CN(C(=O)c1ccc2c(c1)OCO2)C1(C(=O)NC2CCCC2)CCCCC1,inconclusive [increasing]
18,Cc1cccc(C)c1OCC(=O)Nc1cccc(NC(=O)c2ccco2)c1,inconclusive [increasing]
19,COC(=O)c1ccc(COc2ncnc3c(Cl)cc(Cl)cc23)o1,inconclusive [increasing]
20,CC1(c2ccc3noc(-c4ccc(Cl)cc4)c3c2)OCCO1,inconclusive [decreasing]
21,Oc1[nH]c2ccccc2c1/C=N/c1nccs1,inconclusive [decreasing]
22,CCC1Oc2ccc(C)cc2N(CC(=O)NCc2cc(OC)ccc2OC)C1=O (stereo unspecified),inactive: > 57 µM
23,COc1ccc2cc(CN(CCO)C(=O)c3ccccc3F)c(=O)[nH]c2c1,inactive: > 57 µM
24,Cc1ccc(S(=O)(=O)NCC2CCC(C(=O)NCCCN3CCOCC3)CC2)cc1 (stereo unspecified),inconclusive [increasing]
25,COCCn1nnnc1CN1CCC(NC(=O)c2ccc(Br)cc2)CC1,inactive: > 57 µM
26,Cc1oc(-c2ccc(Cl)cc2)cc1-c1nn2c(-c3ccoc3C)nnc2s1,inconclusive [decreasing]

row,Structure (SMILES),Potency
1,CC(C)Oc1cccc(-c2cc(C(=O)N3CCN(S(C)(=O)=O)CC3)c3ccccc3n2)c1,inconclusive [decreasing]
2,N#Cc1sc2nc(-c3ccccc3)cc(-c3ccco3)c2c1N,inconclusive [decreasing]
3,Nc1n[nH]c(-c2ccc(Br)cc2)c1Cl,inconclusive [decreasing]
4,COc1cccc(CC(NC(C)=O)C(=O)NC2CCN(c3nc(C)cc(C)c3C#N)CC2)c1OC (stereo unspecified),inactive: > 57 µM
5,O=C(Nc1ccc2c(c1)OCCO2)c1ccc(Br)o1,inconclusive [decreasing]
6,COCCNc1oc(-c2ccc(Cl)cc2)nc1C#N,inconclusive [decreasing]
7,C=CCOc1nc(-c2ccncc2)nc2ccccc12,active: 8.29 µM
8,Cc1nn(C(C)C(=O)N2CCc3ccccc3C2)c(=O)c2cc3occc3n12 (stereo unspecified),inconclusive [increasing]
9,CCNS(=O)(=O)c1ccc(NC(=O)Cc2ccc(F)cc2)cc1,inactive: > 57 µM
10,CCCN1C(=O)C(O)(CC(=O)c2ccc3c(c2)OCCO3)c2ccccc21 (stereo unspecified),inconclusive [increasing]
11,Cc1cccc(C)c1NS(=O)(=O)c1ccc(F)cc1,inconclusive [increasing]
12,Clc1cccc(Cl)c1Cn1cnc(=NCc2ccco2)c2[nH]cnc21,active: 2.17 µM
13,Cc1cc(C(=O)NCc2ccccc2Br)no1,inconclusive [increasing]
14,Nc1nc2sc3c(c2c(=O)s1)CCCC3,inconclusive [decreasing]
15,O=C(Nc1ccccc1N1CCN(C(=O)c2ccc(Cl)cc2)CC1)c1cccnc1,inconclusive [increasing]
16,CN(C)S(=O)(=O)c1cccc(C(=O)NCc2ccco2)c1,inactive: > 57 µM
17,COc1ccc(C(=O)Oc2c(CN3CCOCC3)cc(Cl)c3cccnc23)cc1,inactive: > 57 µM
18,O=C(OCC(=O)N1CCN(C(=O)c2ccco2)CC1)c1cc(-c2ccccc2)nc2ccccc12,inconclusive [decreasing]
19,Clc1ccccc1-c1nc(-c2cccnc2)no1,inconclusive [decreasing]
20,CCC(C)C(=O)N1CCc2cc(-c3csc(N)n3)ccc21 (stereo unspecified),active: 8.11 µM
21,O=S(=O)(c1cc(F)cc(F)c1)N1CCN(c2ncccn2)CC1,inconclusive [increasing]
22,O=C(Nc1ccc2c(c1)nc1n2CCOC1)c1ccco1,inconclusive [decreasing]
23,COc1ccc(NC(=O)Nc2ccc(C(=O)N3CCOCC3)cc2)cc1,inactive: > 57 µM
24,COC(=O)c1[nH]c2cccc(OC)c2c1NC(=O)CCN1CCN(c2ccccc2F)CC1,inactive: > 57 µM
25,O=C(Nc1nccs1)C1(S(=O)(=O)c2ccc(Cl)cc2)CC1,inconclusive [increasing]
